# Reference: the BET-seq Pho4 binding data (Le et al. 2018)
# Some of the results follow. The energies were worked out here from pooled read counts, against the library average; single values are noisy.
# Molecular target: T1, Pho4 (S. cerevisiae) (UniProt P07270)
# T1 sequence: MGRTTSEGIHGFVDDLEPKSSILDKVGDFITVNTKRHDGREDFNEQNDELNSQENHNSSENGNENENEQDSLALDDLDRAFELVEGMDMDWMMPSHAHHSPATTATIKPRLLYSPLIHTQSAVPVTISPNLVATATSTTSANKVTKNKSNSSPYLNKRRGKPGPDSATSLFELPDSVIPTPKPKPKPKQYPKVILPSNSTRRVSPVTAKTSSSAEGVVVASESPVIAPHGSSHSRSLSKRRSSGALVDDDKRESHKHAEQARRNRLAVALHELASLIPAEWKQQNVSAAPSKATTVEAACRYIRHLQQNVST
# Test: relative binding free energy (BET-seq); higher = weaker binding
# Conditions: reference: library average
row,Sequence,relative binding free energy [kJ/mol]
1,TGTGTCACGTGCAAGT,0.628
2,TTTGTCACGTGGTCTA,-0.126
3,GTTGGCACGTGTCTTG,0
4,GGTACCACGTGTTGGC,0.209
5,GTAGGCACGTGTAGTG,-0.0837
6,GTGTCCACGTGGTGCG,-0.167
7,TGCCTCACGTGGGTGG,-0.0418
8,TTGGTCACGTGCGAGT,0.628
9,TATTGCACGTGGAAAG,0.293
10,GTCGGCACGTGGGCTA,-0.711
11,GGGTGCACGTGTTAAC,0
12,ATTGCCACGTGATATT,0.251
13,GGAATCACGTGGATGT,0.377
14,TTTGTCACGTGAGGGT,1.34
15,AGGTTCACGTGGCCTT,0.711
16,TAGGACACGTGTTCTT,0.209
17,CGGTTCACGTGGCTTT,0.586
18,AGAAGCACGTGAGTAG,0.879
19,GGTGTCACGTGCAGGA,0.544
20,CGAGACACGTGCGTGG,0.0418
21,TTTAACACGTGTGTAA,0.251
22,TTTTTCACGTGGGGTG,0.669
23,GTGTCCACGTGGAGAG,0.418

row,Sequence,relative binding free energy [kJ/mol]
1,CTGTTCACGTGGTGTT,0.753
2,TAAGTCACGTGGGATG,0.377
3,GTTTACACGTGAAATA,1.55
4,GCGTTCACGTGGAGAG,1.17
5,TAGAGCACGTGAGGTA,0.293
6,CGCGACACGTGGGGTT,-0.418
7,AGTTTCACGTGGCAAG,0.795
8,TGATGCACGTGGTTAC,0.502
9,GCCGACACGTGGGGGT,-0.628
10,GTGGGCACGTGGCGAT,-0.418
11,ACTGTCACGTGATGGG,0.335
12,TGGAACACGTGAGCGG,0.377
13,TCGTGCACGTGGGATA,-0.377
14,ATGGTCACGTGTTAAA,0.795
15,GTCTCCACGTGTGGGA,0.795
16,TATGTCACGTGGTTCT,0.167
17,TTTCTCACGTGTGTTA,0.92
18,AGAATCACGTGATGGG,1.09
19,GATTTCACGTGGATCT,1.55
20,GTTGGCACGTGTTAAT,0.502
21,TGAGTCACGTGGTCGG,-0.167
22,GTTCTCACGTGTGGTG,1.05
23,ATGGTCACGTGAGCGA,1.8

row,Sequence,relative binding free energy [kJ/mol]
1,GTTTCCACGTGGGTTC,0.335
2,TGGGACACGTGCGTGG,-0.0418
3,AGGCTCACGTGGTTGG,0.711
4,AGAGGCACGTGAGCGG,0.293
5,AAGGGCACGTGCGAGG,-0.92
6,GATGGCACGTGGTCAA,-0.251
7,TTAACCACGTGTTGTG,-0.544
8,GGTTGCACGTGGGTTA,-0.46
9,GGGTACACGTGCTGTT,-0.544
10,GTTGGCACGTGTATCT,0.0418
11,TCATGCACGTGCGGTG,-0.418
12,CAATTCACGTGTGGAG,1.34
13,TGGAGCACGTGGATAG,-0.628
14,TACGTCACGTGGAAGT,0.418
15,AGTTACACGTGCAGGG,0.209
16,AGACGCACGTGTGTTT,-0.293
17,GGGTGCACGTGAAAGG,1.21
18,GTAGTCACGTGCTGCG,0.167
19,GGAGTCACGTGTATAA,0.418
20,ATTGACACGTGTTATC,0.962
21,TGTTTCACGTGATAGC,1.13
22,TTCTTCACGTGAATGT,2.38
23,TTCGGCACGTGTTCGG,0.209

row,Sequence,relative binding free energy [kJ/mol]
1,TGGATCACGTGGGAAG,0.377
2,CGGGTCACGTGTCAAT,1.46
3,GGTGACACGTGTTGCT,0.209
4,GCGGTCACGTGGGGAG,0.418
5,AGCTGCACGTGAAAGG,1.09
6,CTATGCACGTGATGGT,0.209
7,TCGTTCACGTGTGATA,0.502
8,TCTGACACGTGGTGTA,-0.126
9,GTGCCCACGTGAGTGT,0.418
10,TTTAACACGTGGGTTT,-0.167
11,TGTTACACGTGGGACA,0.251
12,GCGGCCACGTGAGTGG,0.544
13,GGTATCACGTGGGTCG,0.502
14,AGTAGCACGTGACAGT,0.293
15,AAAATCACGTGTTGGT,0.377
16,AGGTGCACGTGAGTGA,0.418
17,TTCTGCACGTGTGCGA,0.544
18,CGTGGCACGTGGTGTG,-0.711
19,AGGAGCACGTGCGGGA,-0.377
20,AGGGTCACGTGGGGCA,-0.209
21,TGTTACACGTGCGTTG,0.167
22,TCGTGCACGTGATTGT,-0.0418
23,TAGCTCACGTGGGCGT,0.293

row,Sequence,relative binding free energy [kJ/mol]
1,TTCTTCACGTGGGTGA,0.628
2,AAAAACACGTGGGGGC,-0.0837
3,TGGGGCACGTGTTAGG,-0.251
4,AAGGTCACGTGTGGTG,0.586
5,TCGCGCACGTGTGGTT,-0.167
6,TGGGTCACGTGAATGA,1.13
7,TGAGCCACGTGGGTGT,-1
8,GATGCCACGTGTGAGT,-0.0418
9,CTTTGCACGTGTTCGT,-0.167
10,TGAGGCACGTGGGGAA,-0.795
11,TTTTGCACGTGGGGAC,-0.126
12,GTATACACGTGGTTCT,0.293
13,TCGGTCACGTGGTTAG,-0.167
14,AGTAACACGTGAGTGG,1
15,GACTGCACGTGGGGGT,-1.05
16,CGGGGCACGTGGGGTA,-0.711
17,GAGTTCACGTGGCATA,1.84
18,TATTCCACGTGATGGT,1.13
19,TATTGCACGTGATGTG,0.46
20,GCAATCACGTGGGGTG,0.167
21,AAATTCACGTGTCTTT,1
22,TAGGTCACGTGTTATG,0.92
23,TAGAACACGTGGTGGT,0.209
